Source: PubChem BioAssay AID504333 (National Center for Advancing Translational Sciences (NCATS), 2011)
Where “and” joins values, the source holds several entries; their conditions need not be identical. Identical values can stand only once. Hit rate of the full screen: of about 360,000 compounds, about 16,000 (4.4%) were called active. The shares of active, inactive and inconclusive entries below differ from those in the screen. Calls come from the whole dose curve; as a rule, active = well fitted inhibition curve with a large enough effect; inconclusive = small, poorly fitted or top-dose-only effect; inactive = no such curve, though single readings can be large or run the other way. Potencies beside an inconclusive call are fits to weak or partial responses and may not hold up.
% is set by controls: 0 for no effect and ±100 for the full control effect; potency is the fitted concentration of half-maximal effect; tags give direction and shape of the fitted curve.
Note: nearly all actives have a fitted effect of over 60% in size.

The molecules below were run against Bromodomain adjacent to zinc finger domain protein 2B (Homo sapiens) (UniProt Q9UIF8) (assay: qHTS Assay for Inhibitors of BAZ2B). Settings: AlphaScreen BAZ2B-H3K14Ac peptide displacement; activity change, negative = inhibition: at 114 µM (top of the series).
Chain of UniProt Q9UIF8 (Q9UIF8 whole entry, looked up, the tested form may be a part): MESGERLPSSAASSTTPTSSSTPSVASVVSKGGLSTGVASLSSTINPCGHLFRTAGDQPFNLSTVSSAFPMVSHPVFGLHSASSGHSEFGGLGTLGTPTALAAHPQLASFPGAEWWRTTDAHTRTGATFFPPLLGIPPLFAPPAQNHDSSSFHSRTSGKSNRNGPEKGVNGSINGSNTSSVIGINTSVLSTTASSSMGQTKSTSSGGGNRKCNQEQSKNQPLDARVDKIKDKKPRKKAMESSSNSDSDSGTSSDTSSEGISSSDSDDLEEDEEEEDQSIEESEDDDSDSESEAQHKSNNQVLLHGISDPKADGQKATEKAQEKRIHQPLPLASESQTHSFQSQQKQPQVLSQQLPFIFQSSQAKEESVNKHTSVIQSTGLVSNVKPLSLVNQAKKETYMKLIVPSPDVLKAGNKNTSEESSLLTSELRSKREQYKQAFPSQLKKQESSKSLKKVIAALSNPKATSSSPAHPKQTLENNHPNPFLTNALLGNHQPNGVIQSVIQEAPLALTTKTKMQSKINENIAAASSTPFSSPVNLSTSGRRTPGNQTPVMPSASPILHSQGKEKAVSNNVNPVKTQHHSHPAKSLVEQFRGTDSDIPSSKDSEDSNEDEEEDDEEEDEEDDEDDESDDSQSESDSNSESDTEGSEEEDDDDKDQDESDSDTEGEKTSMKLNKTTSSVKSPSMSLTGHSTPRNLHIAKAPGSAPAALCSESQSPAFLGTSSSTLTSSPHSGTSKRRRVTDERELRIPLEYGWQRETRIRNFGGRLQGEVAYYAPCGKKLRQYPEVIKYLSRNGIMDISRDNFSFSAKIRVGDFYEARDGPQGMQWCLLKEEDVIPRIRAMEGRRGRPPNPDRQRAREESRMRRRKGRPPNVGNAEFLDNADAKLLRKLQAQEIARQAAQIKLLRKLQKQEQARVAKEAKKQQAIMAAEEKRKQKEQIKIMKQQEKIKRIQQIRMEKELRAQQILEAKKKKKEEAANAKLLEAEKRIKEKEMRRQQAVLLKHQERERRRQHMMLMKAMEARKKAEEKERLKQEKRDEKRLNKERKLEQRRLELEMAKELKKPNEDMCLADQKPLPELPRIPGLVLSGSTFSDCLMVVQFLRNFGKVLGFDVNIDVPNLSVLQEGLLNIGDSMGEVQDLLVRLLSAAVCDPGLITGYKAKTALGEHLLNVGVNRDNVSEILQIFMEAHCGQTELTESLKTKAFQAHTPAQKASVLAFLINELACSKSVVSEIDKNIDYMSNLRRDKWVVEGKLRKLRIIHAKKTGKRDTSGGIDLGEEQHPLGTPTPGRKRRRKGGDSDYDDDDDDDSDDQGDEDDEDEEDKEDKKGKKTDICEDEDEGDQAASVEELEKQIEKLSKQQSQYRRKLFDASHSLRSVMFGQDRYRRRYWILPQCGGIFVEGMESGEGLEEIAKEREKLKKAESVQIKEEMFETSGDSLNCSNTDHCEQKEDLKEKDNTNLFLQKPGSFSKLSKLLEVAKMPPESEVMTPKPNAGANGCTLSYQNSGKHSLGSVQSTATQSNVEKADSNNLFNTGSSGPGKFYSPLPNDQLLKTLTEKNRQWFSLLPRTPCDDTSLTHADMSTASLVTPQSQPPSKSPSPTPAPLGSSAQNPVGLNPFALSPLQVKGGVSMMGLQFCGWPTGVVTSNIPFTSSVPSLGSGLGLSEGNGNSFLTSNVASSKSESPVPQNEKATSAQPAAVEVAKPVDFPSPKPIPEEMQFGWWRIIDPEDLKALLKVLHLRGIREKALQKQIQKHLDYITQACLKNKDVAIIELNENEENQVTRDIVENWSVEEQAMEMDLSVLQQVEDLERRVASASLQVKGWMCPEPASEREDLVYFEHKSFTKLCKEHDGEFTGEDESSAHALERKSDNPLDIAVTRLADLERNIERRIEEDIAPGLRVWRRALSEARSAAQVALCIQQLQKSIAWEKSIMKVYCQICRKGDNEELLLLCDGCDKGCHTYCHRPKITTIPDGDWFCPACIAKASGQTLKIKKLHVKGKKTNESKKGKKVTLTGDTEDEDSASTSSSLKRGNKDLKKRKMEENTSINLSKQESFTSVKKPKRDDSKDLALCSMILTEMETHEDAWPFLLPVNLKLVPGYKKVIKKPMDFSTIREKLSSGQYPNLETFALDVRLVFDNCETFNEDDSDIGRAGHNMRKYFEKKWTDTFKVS
How it was run: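 Multi-concentration screen (max 110 uM) measuring displacement of acetylated histone H3 peptide from BAZ2B by AlphaScreen, using 50 nM protein, 50 nM peptide and 10 ug/mL streptavidin donor plus Ni-chelate acceptor beads.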
`Cc1cc(C(=O)CN2C(=O)NC3(CCCC3)C2=O)c(C)n1-c1ccc2c(c1)OCO2` was tested, and the Potency was inconclusive: 50.1 µM [inhibitor, partial curve].
For `CCN(CCNC(=O)CS(=O)(=O)Cc1nc(-c2cccc(OC)c2)oc1C)c1ccccc1`, the Potency was inconclusive: 44.7 µM [inhibitor, partial curve].
With `CCN1C(=O)C(Cc2nc3ccccc3c(=O)n2-c2ccc(OC)cc2)c2cc(C)ccc21` (stereo unspecified) the Potency was inconclusive: 28.2 µM [inhibitor, full curve].
For `CCc1cc(=O)oc2cc(OCC(=O)N3CCC[C@H]3C(=O)O)ccc12`, the Potency was “inactive”.
With `CCOC(=O)c1c(C)[nH]c(C)c1C(=O)COc1ncnc2cc([N+](=O)[O-])ccc12` the Potency was inconclusive: 50.1 µM [inhibitor, partial curve].
With `COc1cc(/C=C2\SC(=O)N(Cc3ccc(Cl)cc3)C2=O)cc([N+](=O)[O-])c1O` the Potency was active: 15.8 µM.
For `CCCCNc1c([N+](=O)[O-])cc(C)cc1[N+](=O)[O-]`, the Potency was active: 31.6 µM.
For `COc1ccc(OC)c(S(=O)(=O)NC2CC(=O)N(c3cccc(F)c3)C2)c1` (stereo unspecified), the Potency was “inactive”.
`COc1ccc(C2(C(=O)c3ccccc3)C(=O)c3ccccc3C2=O)cc1` was tested, and the Potency was active: 22.4 µM.
`Cc1ccc(C)c(N2CCN(S(=O)(=O)c3ccc4c(c3)C(C)(C)C(=O)N4C)CC2)c1` was tested, and the Potency was inconclusive: 100 µM [inhibitor, single point].
For `Cc1cc(C(=O)CSc2n[nH]c(N)n2)c(C)n1-c1cc(F)ccc1F`, the Potency was inconclusive: 79.4 µM [inhibitor, single point].
In the case of `CC(C)N(C(=S)Nc1cccnc1)c1ccccc1`, the Potency is reported as “inactive”.
With `O=C(O)c1cc(Cl)c(Cl)cc1C(=O)Nc1cccnc1` the Potency was inconclusive: 89.1 µM [inhibitor, single point].
In the case of `COCCCN1C(=O)C(=O)/C(=C(/O)c2ccc(S(=O)(=O)N3CCCCC3)cc2)C1c1ccc(O)c(OC)c1` (stereo unspecified), the Potency is reported as inconclusive: 79.4 µM [inhibitor, single point].
`O=C(Nc1cccc(Br)c1)c1ccccc1-c1ccccc1` was tested, and the Potency was “inactive”.
For `COCCn1c(SCC(=O)NCc2ccc(OC)c(OC)c2)nc2ccccc21`, the Potency was “inactive”.
In the case of `CCN1C(=O)c2cccc3c(S(=O)(=O)Nc4ccccc4O)ccc1c23`, the Potency is reported as inconclusive: 44.7 µM [inhibitor, partial curve].
`Cc1ccc(-c2ccc(/C=N/n3cnnc3)o2)cc1` was tested, and the Potency was inconclusive: 89.1 µM [inhibitor, partial curve].
In the case of `COc1ccc(N2CCN(CC(=O)c3ccc(O)cc3O)CC2)cc1`, the Potency is reported as inconclusive: 50.1 µM [inhibitor, partial curve].
With `Cc1cc(=O)n(CC(=O)Nc2ccc([N+](=O)[O-])cc2)c(-n2nc(C)cc2C)n1` the Potency was “inactive”.
In the case of `CC(C)C1C(=O)Nc2ccc(S(=O)(=O)NCc3ccc(Cl)cc3)cc21` (stereo unspecified), the Potency is reported as “inactive”.
In the case of `O=C(NCc1n[nH]c(=S)n1-c1cccc(Cl)c1)c1ccc(S(=O)(=O)N2CCCC2)cc1`, the Potency is reported as inconclusive: 79.4 µM [inhibitor, partial curve].
For `CCOC(=O)COn1c(=O)c(-c2ccc(OC)cc2)[n+]([O-])c2ccccc21`, the Potency was “inactive”.
In the case of `Cc1ccc(Nc2ccc([N+](=O)[O-])nc2[N+](=O)[O-])cc1`, the Potency is reported as inconclusive: 79.4 µM [inhibitor, single point].
For `Cc1nc(N2CCN(Cc3ccc4c(c3)OCO4)CC2)nc2c1C(=O)CC(c1ccco1)C2` (stereo unspecified), the Potency was inconclusive: 89.1 µM [inhibitor, single point].
With `O=C1/C(=C\c2c(NCCOCCO)nc3ccccn3c2=O)SC(=S)N1Cc1ccco1` the Potency was inconclusive: 70.8 µM [inhibitor, single point].
In the case of `Cc1cccc(NC(=O)c2sc3nc4c(cc3c2N)CCCCCC4)c1C`, the Potency is reported as “inactive”.
`Clc1ccc(OCc2nc3ccccc3[nH]2)cc1` was tested, and the Potency was “inactive”.
`Cc1c(C(=O)N(Cc2ccc(N(C)C)cc2)C2CCS(=O)(=O)C2)oc2ccccc12` (stereo unspecified) was tested, and the Potency was active: 31.6 µM and active: 28.2 µM.
With `COc1cc(C(=O)CC2(O)C(=O)N(Cc3ccccc3Cl)c3ccccc32)cc(OC)c1OC` (stereo unspecified) the Potency was inconclusive: 50.1 µM [inhibitor, partial curve].
For `Cc1ccc(O)c(N=Nc2nccs2)c1`, the Potency was active: 10 µM.
`c1ccc(-c2ccccc2OCCN2CCOCC2)cc1` was tested, and the Potency was active: 79.4 µM.
For `NC(=O)c1cccc2c1-c1ccccc1/C2=N/NC(N)=S`, the Potency was inconclusive: 79.4 µM [inhibitor, single point].
In the case of `O=C(c1ccc2c(c1)N(Cc1ccccc1)C(=O)c1ccccc1S2(=O)=O)N1CCN(c2ccccc2)CC1`, the Potency is reported as inconclusive: 63.1 µM [inhibitor, partial curve, poor fit].
In the case of `Cc1ccc(-c2nnc(Nc3ccc(Br)cc3)c3ccccc23)cc1S(=O)(=O)N1CCN(C)CC1`, the Potency is reported as inconclusive: 56.2 µM [inhibitor, partial curve].
For `CO/N=C/C(=N\Nc1ccc(OC)cc1)C(=O)c1ccc(OC)cc1`, the Potency was inconclusive: 63.1 µM [inhibitor, single point].
For `NCCCn1c(C(=O)c2cc(Cl)c(N)c(Cl)c2)c2ccc([N+](=O)[O-])cc2[n+]1[O-]`, the Potency was inconclusive: 44.7 µM [inhibitor, partial curve].
For `COc1ccc(CCNC(=O)Cc2c(C)c3c(cc(C)c4c(C)coc43)oc2=O)cc1OC`, the Potency was “inactive”.
For `COc1cc([N+](=O)[O-])cc(/C=N/NC(=O)c2ccc(C)nc2)c1O`, the Potency was active: 10 µM.
`Cc1nn(-c2ccccc2)nc1C(=O)Oc1cc(C(F)(F)F)nn1-c1ccccc1` was tested, and the Potency was inconclusive: 79.4 µM [inhibitor, single point].
With `COc1ccc(CCNC(=O)c2ccc3c(c2)CCN3S(C)(=O)=O)cc1` the Potency was “inactive”.
With `CSc1ccc(CCNC(=O)C2CCCN(c3ncnc4c3nc3n4CCCCC3)C2)cc1` (stereo unspecified) the Potency was inconclusive: 22.4 µM [inhibitor, full curve].
With `CCN(CC)C(=O)c1sc2[nH]c(=S)n(-c3ccccc3)c(=O)c2c1C` the Potency was inconclusive: 89.1 µM [inhibitor, single point].
In the case of `Cc1cc(C)cc(NC(=O)COC(=O)c2cc(=O)[nH]c(=O)[nH]2)c1`, the Potency is reported as inconclusive: 89.1 µM [inhibitor, single point].
In the case of `CCN(CC)c1ccc(NC(=O)/C=C/c2cc(Br)ccc2OC)cc1`, the Potency is reported as active: 8.91 µM.
With `O=C(N/N=C/c1cc2ccccc2nc1Cl)/C(=C/c1cccs1)NC(=O)c1ccccc1` the Potency was inconclusive: 89.1 µM [inhibitor, single point].
For `O=C(Nc1cccc(NC(=O)c2ccccc2Cl)c1)c1ccc(F)cc1`, the Potency was inconclusive: 89.1 µM [inhibitor, single point].
With `Cc1nn(S(=O)(=O)c2ccccc2)c(C)c1S(=O)(=O)N1CCC(C)CC1` the Potency was inconclusive: 89.1 µM [inhibitor, single point].
In the case of `COc1ccc(OC)c(C(=O)c2c(N)c(-c3nc(-c4ccc(C)c(C)c4)cs3)c3ccccn23)c1`, the Potency is reported as “inactive”.
`Cc1cc(C(=O)NCCC2=CCCCC2)ccc1[N+](=O)[O-]` was tested, and the Potency was inconclusive: 20 µM [inhibitor, full curve].
For `Oc1c(N=Nc2ccc(F)cc2)ccc2ccccc12`, the Potency was active: 1.41 µM.
For `CCC1CSC(Nc2ccc(C(=O)/C=C/c3ccc(OC)c(OC)c3)cc2)=N1` (stereo unspecified), the Potency was inconclusive: 44.7 µM [inhibitor, full curve, poor fit].
With `Cc1ccc(N)cc1S(=O)(=O)N(C)C` the Potency was “inactive”.
`COc1ccccc1-c1nc(C#N)c(NCCCn2ccnc2)o1` was tested, and the Potency was inconclusive: 89.1 µM [inhibitor, single point].
With `C=CCn1c(-c2ccc(Cl)cc2)cnc1SC(C)C(N)=O` (stereo unspecified) the Potency was inconclusive: 79.4 µM [inhibitor, single point].
In the case of `CC(C)N=C1NN=C(c2cccs2)CS1`, the Potency is reported as “inactive”.
`Clc1ccc(CNc2ccccc2NCc2ccc(Cl)nc2)cn1` was tested, and the Potency was inconclusive: 17.8 µM [inhibitor, full curve].
In the case of `CCOc1cccc(=O)c2c(C)n(C)c(C)c12`, the Potency is reported as active: 56.2 µM.
With `CC(C)(C)c1ccc(S(=O)(=O)N(CCCN2CCOCC2)Cc2cccs2)cc1` the Potency was active: 25.1 µM.
With `Cc1c(CCC(=O)NCCCn2ccnc2)c(=O)oc2c(C)c3oc4c(c3cc12)CCCC4` the Potency was inconclusive: 44.7 µM [inhibitor, full curve, poor fit].
In the case of `Cc1cc(NC(=O)C(C)Oc2ccc(Cl)cc2Cl)n(-c2ccccc2)n1` (stereo unspecified), the Potency is reported as inconclusive: 3.55 µM [inhibitor, single point].
For `O=C(Nc1ccc(N2CCCC2)cc1)c1cc2ccccc2o1`, the Potency was active: 25.1 µM.
With `CN(C)c1ccc(C(c2ccc(N(C)C)cc2)c2ccc([N+](=O)[O-])cc2)cc1` the Potency was active: 6.31 µM.
For `COC(=O)C(CC(=O)c1ccc(Br)cc1)n1ccnc1` (stereo unspecified), the Potency was active: 50.1 µM.
For `O=c1[nH]c2ccc(NC(=S)NCCc3ccccc3)cc2[nH]1`, the Potency was “inactive”.
For `COc1ccc(NC(=S)N2CCN(S(=O)(=O)c3ccccc3)CC2)cc1OC`, the Potency was inconclusive: 79.4 µM [inhibitor, single point].
`CC(=O)c1c(CC(=O)O)[nH]n(-c2nc3ccccc3s2)c1=O` was tested, and the Potency was “inactive”.
For `Cc1ccc(S(=O)(=O)N2CCCC2)cc1C(=O)NCc1ccccc1CN1CCCC1`, the Potency was “inactive”.
In the case of `COc1cc(C2NC(=O)NC(C)=C2C(=O)OCC2CCCCC2)ccc1O` (stereo unspecified), the activity change, negative = inhibition is reported as inconclusive: -54.5% [inhibitor].
In the case of `CC(C)CSc1nnc(-c2ccccc2)c(-c2ccccc2)n1`, the Potency is reported as “inactive”.
In the case of `CCN(CC)CCCN1C(=O)C(=O)/C(=C(/O)c2ccc(Cl)cc2)C1c1ccccn1` (stereo unspecified), the Potency is reported as inconclusive: 89.1 µM [inhibitor, single point].
